Reference: US7326684B2, “Peptides for enhancing resistance to microbial infections” (priority 2002, dated 2008)

Tested on: S. typhimurium
Type: cell-based, Salmonella typhimurium

Substance	Influence on viability and growth of S. typhimurium
cyclo(Val-Lys-Gly-Phe-Tyr) (VKGFY; cyclic; printed: Val-Lys-Gly-Phe-Tyr) [Cyclopentarphin]	do not influence viability and growth
H-VKGFY-OH [Pentarphin, Val-Lys-Gly-Phe-Tyr]	do not influence viability and growth
